The densities may have been worked out from excess volumes.
Assay: xn = mol fraction of the nth substance listed
Settings: 293.15 K, 101 kPa

C[N+](C)(C)CCO.O=S(=O)([N-]S(=O)(=O)C(F)(F)F)C(F)(F)F + O
Settings	mass density [kg/m3]
x1 = 0.0838	1199.8
x1 = 0.154	1371.4
x1 = 0.28	1449.2
x1 = 0.3358	1467
x1 = 0.4775	1490.4
x1 = 0.5158	1493
x1 = 0.6466	1504.7
x1 = 0.7847	1513.3
x1 = 0.8164	1519.2
x1 = 1	1528.4

— a compilation of properties of binary mixtures (doi:10.1021/acs.jpcb.6b10562)
